Whole data set: some 16,000 sequences, median “Z-score” near -0.37, cut for the highest 2% near 3.1. This is one part of the list.
System: RBM10 RRM1-ZnF-RRM2 (GST-tagged construct)
Experiment: RNAcompete 7-mer binding Z-score; higher = stronger binding preference
In short: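 A one-sided Z-score for enrichment, taken across the probes containing each heptamer motif, was assigned to every such motif. The RNA came from a designed pool of 241 399 sequences up to 41 nt (1.5 nmol), bound by 20 pmol of GST-tagged RBM10 constructs in 1 ml Hepes pH 7.8 buffer with glutathione Sepharose beads for 30 min at 4°C. Four 2-min washes at 4°C preceded identification of bound RNA by microarray hybridisation.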

Sequence	RNAcompete 7-mer binding Z-score
CGGAGUA	1.22
ACCCACG	-0.551
GGACUCA	-0.00512
CUCACUC	-0.785
GCGCGCC	-0.351
GCGAGCG	2.99
CCAAGUA	-0.205
UUUGCUG	-0.679
GCCCUCC	-0.697
UAGUCGA	-0.278
GGCCCGG	-0.0197
AACGUGG	1.49
GCUAGUU	-0.537
AAUAGCA	-0.0925
GAACGUU	-0.388
UAAUACU	-0.65
UAAAACA	-0.242
UGUCCGU	-0.602
UAGGUUC	0.217
UUUGGUA	0.137
ACUACCC	-0.934
AGGCACC	-0.384
UACACAG	-0.231

Sequence	RNAcompete 7-mer binding Z-score
CCGAGCA	-0.49
UAAGCAG	0.461
UUAACAG	-0.22
AAGGCGU	1.67
UUGUCAG	-0.391
AACAGUU	-0.377
ACUUACU	-0.701
UUCAGGU	0.312
CAAUUCU	-0.788
AAAUCUC	-0.876
CUCAACU	-0.872
GACAUUG	0.224
ACGUUGC	-0.522
UUAGCUG	-0.541
CCCUUAC	-0.956
AAGAUCU	-0.635
CAUGUUC	-0.646
ACCCAGG	-0.173
GGUUAGC	1.03
AGGGUAG	3.71
CUUAGCA	-0.668
ACACAGA	0.108
UCGUUAC	-0.57

Sequence	RNAcompete 7-mer binding Z-score
UAUCGUU	-0.715
AAUAGAG	0.742
GUCCCUC	-0.712
UACUUUG	-0.781
GACUUGA	-0.606
AAAACGG	1.65
AUAGUCU	-0.581
GUAACAU	0.0641
AUCUGGG	0.479
UACGGAA	0.865
CCAUCCA	-0.679
AGUCAGG	1.24
GUGCGCC	-0.00877
UAUCGAU	-0.486
UGAUGCU	-0.581
GUUUUUA	-0.428
UCCAUAG	-0.581
AUAGUUC	-0.577
CCGGCGU	-0.26
UCUUAGC	-0.817
CCUAAUA	-0.679
UGUGCCC	-0.675
UGGCAGA	1.25

Sequence	RNAcompete 7-mer binding Z-score
AAUAUAA	-0.296
UCCGUUA	-0.774
GGGAGCG	3.23
GGUCUCU	-0.49
GCCUAUA	-0.744
CGAUCGG	0.355
AACUCUA	-0.927
CUCUUGG	-0.599
ACAUCAA	-0.344
ACCCCGU	-0.697
CACAUGC	-0.664
GUCGGAG	1.24
GAUCGAA	-0.00512
GGUUUCA	0.304
GAGUCUA	-0.0161
GAAUUUC	-0.46
CCCGCCA	-0.646
UCAGUGA	0.428
ACUGCGA	-0.486
UAAUCCA	-0.577
AGUCUUC	-0.541
AAAACUG	-0.133
CACUCAG	-0.497

Sequence	RNAcompete 7-mer binding Z-score
GUCUUCU	-0.683
CUUCCAC	-0.748
ACUGAGG	0.891
UGUUGAA	-0.0598
UCUUCAA	-0.785
CUCAUAG	-0.759
GCAUACC	-0.449
CAAAAUG	-0.187
CGAAUCC	-0.759
UCUAAGU	-0.431
CCCCUUG	-0.744
AAGCGCU	-0.413
AAACCAC	-0.493
UCAACCC	-0.752
GUGGAUU	1.52
CCGAAAU	-0.708
UAAAGAU	-0.0925
AACCAUA	-0.61
UACCUUG	-0.755
CUUGUCU	-1.02
UCAAACA	-0.602
UAUUCGA	-0.57
GCGGGUU	2.54

Sequence	RNAcompete 7-mer binding Z-score
CCACUUC	-0.89
GCCGCUC	-0.646
ACCUUUA	-0.952
GACGAAU	-0.0379
GUCACCU	-0.635
UCAGGUA	0.818
CGUACUG	-0.628
UACACCC	-0.77
AAUCGCC	-0.865
CGUUCAU	-0.646
UAGAGCU	-0.355
CAGUCUA	-0.497
ACUACAG	-0.3
ACCUUUG	-0.883
UAGUCAA	-0.333
CCAGAGC	-0.231
GUUAUCC	-0.584
GGAAAUA	1.16
UUUCCCC	-0.723
GUAUUAG	0.712
AGUAUUC	-0.504
AUUCAGA	-0.162
AGGGCAU	1.43

Sequence	RNAcompete 7-mer binding Z-score
UUACGUG	-0.151
UCAUUCG	-0.653
UGGAGGG	4.26
ACUGUGA	-0.34
UUGUGUU	-0.431
UUUUAUU	-0.646
GGAUAAC	1.24
AAAUGGU	2.73
GCUUGAA	-0.526
GUGACAU	0.181
AAAAGUC	-0.351
GAAGACU	-0.0743
UCGUCCU	-0.748
UACCUGG	-0.446
ACAAAAC	-0.329
UUCCCAG	-0.504
UUCUGUG	-0.49
CCCAGUG	-0.158
GCUCGCC	-0.672
CGACAGU	-0.373
CCGCGAA	-0.734
UAUUCCG	-0.65
GCGCUCA	-0.439

Sequence	RNAcompete 7-mer binding Z-score
GCGUUAA	-0.158
UUAUAGC	-0.639
GUGGGAG	3.99
GUGAGGA	2.73
UGGAUAU	0.876
CAGACAA	-0.402
UUGUAUA	-0.592
CGAAAGC	-0.428
GUGUGAA	0.829
ACAUCGU	-0.581
UCCGUCA	-0.734
GGCGCCG	-0.00512
GAAUACG	0.519
UAAAAAU	-0.457
GAGACGU	0.323
AUCAACG	-0.133
GGUAACG	2.01
UUCAGAG	-0.315
GCGAGAU	0.312
UGCCUGA	-0.704
ACUCUGU	-0.956
GAAGUGC	0.461
GUGUCGG	0.709

Source: the supplement of paper PMC5499739
